Where “and” joins values, the source holds several entries; their conditions need not be identical. Equal values may be shown once. The whole screen tested about 390,000 compounds, of which about 4,700 (1.2%) were called active. Inconclusive results, whose numbers are uncertain, are shown with a selection of clear calls. Calls follow the shape of the dose curve; as a rule, active = well fitted inhibition curve with a large enough effect; inconclusive = small, poorly fitted or top-dose-only effect, or another doubt; inactive = no such curve, though single readings can be large or run the other way. Where the call is inconclusive, the potency comes from a doubtful curve fit.
What follows are molecules tested against DNA polymerase eta (Homo sapiens) (UniProt Q9Y253) (assay: qHTS for Inhibitors of Polymerase Eta). Settings: recombinant Pol eta, fluorescent DNA replication assay; series mostly up to 114 µM; activity change, negative = inhibition: at the top concentration.
Chain of UniProt Q9Y253 (Q9Y253 whole entry, looked up): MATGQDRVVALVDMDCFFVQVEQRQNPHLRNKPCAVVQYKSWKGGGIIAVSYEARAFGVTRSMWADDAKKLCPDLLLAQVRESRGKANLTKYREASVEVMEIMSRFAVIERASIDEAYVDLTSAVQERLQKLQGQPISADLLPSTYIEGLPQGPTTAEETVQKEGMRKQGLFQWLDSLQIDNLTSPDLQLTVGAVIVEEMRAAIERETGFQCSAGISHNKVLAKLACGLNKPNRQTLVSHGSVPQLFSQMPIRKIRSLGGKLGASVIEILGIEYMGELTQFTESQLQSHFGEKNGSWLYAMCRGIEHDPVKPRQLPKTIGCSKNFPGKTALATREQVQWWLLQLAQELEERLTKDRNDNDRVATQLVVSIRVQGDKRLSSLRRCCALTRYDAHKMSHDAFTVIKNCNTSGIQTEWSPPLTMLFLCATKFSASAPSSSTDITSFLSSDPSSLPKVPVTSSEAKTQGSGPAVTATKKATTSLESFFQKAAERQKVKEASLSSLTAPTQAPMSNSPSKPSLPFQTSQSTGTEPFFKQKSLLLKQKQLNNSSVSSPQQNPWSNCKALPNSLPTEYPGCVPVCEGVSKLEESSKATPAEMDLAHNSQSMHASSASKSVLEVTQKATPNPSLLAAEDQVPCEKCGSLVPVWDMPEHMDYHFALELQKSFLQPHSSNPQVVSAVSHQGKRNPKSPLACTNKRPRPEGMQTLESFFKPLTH
Outline: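 Pol eta at 10 nM preincubated with compounds 15 min at room temperature; reaction started with fluorescent substrate (50 nM final) and read kinetically at 0 and 10 min.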
% is scaled to controls: 0 for no effect and ±100 for the full control effect; potency is read from the fitted curve at half-maximal effect; tags tell the direction and shape of the fitted curve.

SMILES	Potency	activity change, negative = inhibition
O=C(O)C/C(=C\c1cccc(NC(=O)c2ccccc2Cl)c1)c1nc2ccccc2s1	active: 50.1 µM	–
CCc1ccc(NC(=O)Cn2c(=O)oc3cc(S(=O)(=O)NCc4ccccc4)ccc32)cc1	–	inactive: -9.15%
CC(=O)Nc1nnc(SCc2cc(=O)c3cccc(C)c3[nH]2)s1	inconclusive: 100 µM [inhibitor, single point]	–
Nc1nc2c(c(=O)[nH]1)C(c1cccc3ccccc13)C1=C(N2)c2ccccc2C1=O (stereo not given)	inconclusive: 63.1 µM [inhibitor, partial curve, poor fit]	–
Cc1ccc(S(=O)(=O)N2CCCCC2)cc1NC(=O)COC(=O)C1(C)CC1(Cl)Cl (stereo not given)	inconclusive: 79.4 µM [inhibitor, partial curve, poor fit]	–
Cc1cc(C(=O)N=Nc2c(O)n(C(C)C)c3ccccc23)n[nH]1	inconclusive: 31.6 µM [inhibitor, partial curve, poor fit]	–
CCc1cc2c(NCc3ccco3)ncnc2s1	–	inactive: -5.18%
Cc1cc(OC(C)C(=O)NCCCN2CCOCC2)c2c(C)c(C)c(=O)oc2c1 (stereo not given)	–	inactive: -13.4%
O=C1c2cccc3c([N+](=O)[O-])ccc(c23)C(=O)N1c1ccc(Cl)cn1	inconclusive: 39.8 µM [inhibitor, partial curve, poor fit]	–
CCOC(=O)c1c(NC(=O)/C=C/C(=O)O)sc(C)c1-c1ccc(C)c(C)c1	inconclusive: 50.1 µM [inhibitor, partial curve]	–
CSc1ccc(CCNC(=O)C2CCN(c3nnc(-n4cccc4)s3)CC2)cc1	inconclusive: 28.2 µM [inhibitor, partial curve, poor fit]	–
C(=N\n1cnnc1)/c1ccc(OCc2cccc3ccccc23)cc1	inconclusive: 14.1 µM [inhibitor, partial curve]	–
Cc1ccc2nc(N3C(=O)C(O)=C(C(=O)c4ccc(C)o4)C3c3ccco3)sc2c1 (stereo not given)	inconclusive: 50.1 µM [inhibitor, partial curve, poor fit]	–
O=C(NC1CCCCC1)C(c1ccc(O)cc1)N(CC1CCCO1)C(=O)C1COc2ccccc2O1 (stereo not given)	inconclusive: 28.2 µM [inhibitor, single point]	–
Cc1cccc(C)c1NC(=O)COc1cccc(/C=N/NC(=O)C(=O)NCc2ccccc2)c1	inconclusive: 8.91 µM [inhibitor, partial curve, poor fit]	–
Cc1ccc(NC(=O)CCNS(=O)(=O)c2ccc3c(c2)oc(=O)n3C)cc1	active: 50.1 µM	–
CC(C)(C)c1ccc(-c2csc(NC(=O)CN3C(=O)NC4(CCCCC4)C3=O)n2)cc1	inconclusive: 12.6 µM [inhibitor, partial curve, poor fit]	–
Cc1ccc(SCc2c(C(=O)N/N=C/C3CC=CCC3)nnn2-c2nonc2N)cc1 (stereo not given)	inconclusive: 22.4 µM [inhibitor, partial curve, poor fit]	–
Cc1cc(C)c2c(N)c(C(=O)Nc3ncc(C)s3)sc2n1	–	inactive: -16.4%
COc1ccc(/C=C(\NC(=O)c2cccs2)C(=O)Nc2ccc(C)cc2)cc1OC	inconclusive: 44.7 µM [inhibitor, partial curve, poor fit]	–

SMILES	Potency	activity change, negative = inhibition
N#C/C(=C\c1ccc(-c2ccc([N+](=O)[O-])cc2)o1)C(=O)Nc1nc(-c2cccs2)cs1	active: 31.6 µM	–
COc1ccc(CCN2CC(C(=O)N3CCN(C(C)=O)CC3)CCC2=O)cc1 (stereo not given)	inconclusive: 89.1 µM [inhibitor, partial curve, poor fit]	–
NNC(=O)c1ccc([N+](=O)[O-])c(CS(=O)(=O)c2ccc(Cl)cc2)c1	–	inactive: -21.6%
COc1cccc(C(=O)NCCSCc2c(F)cccc2Cl)c1	inconclusive: 39.8 µM [inhibitor, partial curve, poor fit]	–
Cc1c(C(=O)O)sc2nc(CSc3ncc(C(F)(F)F)cc3Cl)[nH]c(=O)c12	active: 31.6 µM	–
CC(C)Oc1ccc(/C=C(\NC(=O)/C=C/c2ccco2)C(=O)NCCc2nc3ccccc3[nH]2)cc1	inconclusive: 20 µM [inhibitor, full curve, poor fit]	–
CC1=CC(C)(C)N=C(NC#N)N1	–	inactive: -4.44%
Cc1cc2oc(=O)cc(-c3cc4ccccc4o3)c2cc1O	inconclusive: 15.8 µM [inhibitor, full curve, poor fit]	–
COc1cccc(/C=N/NC(=O)CNC(=O)COc2cccc(C)c2)c1O	inconclusive: 44.7 µM [inhibitor, partial curve, poor fit]	–
CCOC(=O)C1=C(COC(=O)c2ccc(OC)c(OC)c2OC)NC(=O)NC1C (stereo not given)	–	inactive: 2.85%
COc1ccc(NC(=O)COC(=O)CN2C(=O)NC(C)(C)C2=O)cc1	–	inactive: -6.46%
CC(=O)N(c1ccc2oc(=O)sc2c1)S(=O)(=O)c1ccc(C(=O)O)cc1	active: 35.5 µM	–
CCOC(=O)c1cnc2ccc(C(=O)OC)cc2c1NCCc1ccc(OC)c(OC)c1	inconclusive: 79.4 µM [inhibitor, partial curve, poor fit]	–
CN(C)CC1CCC/C(=C\c2ccc(OC(=O)/C=C/c3ccccc3)cc2)C1=O (stereo not given)	inconclusive: 17.8 µM [inhibitor, partial curve, poor fit]	–
CCc1nnc(NC(=O)C2Cc3ccccc3CN2S(=O)(=O)c2cccs2)s1 (stereo not given)	inconclusive: 14.1 µM [inhibitor, partial curve, poor fit]	–
O=C(/C=C/c1ccc(O)c(O)c1)c1ccccc1O	inconclusive: 31.6 µM [inhibitor, full curve]	–
Cc1cc2[nH]c(=O)c(=O)[nH]c2cc1S(=O)(=O)N1CCN(c2cccc(C)c2C)CC1	inconclusive: 100 µM [inhibitor, single point] and inconclusive: 28.2 µM [inhibitor, partial curve, poor fit]	–
CCOC(=O)c1c2c3c(c(Cl)ccc3[nH]c1=O)C(=O)c1ccccc1-2	active: 79.4 µM	–
CC(=O)Nc1ccc(S(=O)(=O)NCCc2csc(C)n2)cc1	–	inactive: -0.661%
O=C(O)c1[nH]c2ccc(Cl)cc2c1CC(=O)N1CCN(C(=O)c2ccco2)CC1	active: 7.08 µM	–
